In the supplement of paper PMC4604168 (melanoma cell lines):
Some of the results follow. Repeats are few or missing, and single values can be far off.

Test system: SkMel5
Assay: cell count relative to DMSO control; melanoma cells; higher = more viable cells
Conditions: library dose: standard library concentration; 72 h; first compound 2 µM
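Further: cells treated in 1,536-well plates, then fixed and DAPI-stained, with nuclei counted from automated high-throughput microscope images.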

SMILES | cell count [%]
C[C@@H](N)c1ccc(C(=O)Nc2ccnc3[nH]ccc23)cc1 + CO[C@@H]1[C@H](N(C)C(=O)c2ccccc2)C[C@H]2O[C@]1(C)n1c3ccccc3c3c4c(c5c6ccccc6n2c5c31)C(=O)NC4 [Midostaurin] (partner dose 0.4 µM) | 31.9
Cn1sc(=O)n(Cc2ccccc2)c1=O + Nc1cccc2c1CN(C1CCC(=O)NC1=O)C2=O [lenalidomide] (partner dose 5 µM) | 83.9
Cn1sc(=O)n(Cc2ccccc2)c1=O + COc1cc2c(Oc3ccc4[nH]c(C)cc4c3F)ncnc2cc1OCCCN1CCCC1 [cediranib] (partner dose 2 µM) | 82.6
C[C@@H](N)c1ccc(C(=O)Nc2ccnc3[nH]ccc23)cc1 + Cn1sc(=O)n(Cc2ccccc2)c1=O [TDZD-8] (partner dose 2 µM) | 53
C[C@@H](N)c1ccc(C(=O)Nc2ccnc3[nH]ccc23)cc1 + CC(C)C[C@H](NC(=O)[C@H](Cc1ccccc1)NC(=O)c1cnccn1)B(O)O [Bortezomib] (partner dose 0.005 µM) | 19.5
CCCCCCCCCCCCCCCCCCOP(=O)([O-])OC1CC[N+](C)(C)CC1 [Perifosine] + C#Cc1cccc(Nc2ncnc3cc(OCCOC)c(OCCOC)cc23)c1 [erlotinib] (partner dose 4 µM) | 55.1
Cn1sc(=O)n(Cc2ccccc2)c1=O + CNC(=O)c1cc(Oc2ccc(NC(=O)Nc3ccc(Cl)c(C(F)(F)F)c3)cc2)ccn1 [sorafenib] (partner dose 2 µM) | 77.2
